Laboratory results reported in publication PMC4336329 (PLoS ONE, 2015).
About 2,200 (0.71%) of roughly 310,000 compounds showed an effect of 50% or more. The effect is printed as a negative number. The list shows a part of the results.

molecular target: human ether-à-go-go-related gene (hERG) potassium channel (human, UniProt Q12809); assay: primary screen, population patch clamp on CHO cells stably expressing hERG
Sequence (Q12809 whole entry, looked up): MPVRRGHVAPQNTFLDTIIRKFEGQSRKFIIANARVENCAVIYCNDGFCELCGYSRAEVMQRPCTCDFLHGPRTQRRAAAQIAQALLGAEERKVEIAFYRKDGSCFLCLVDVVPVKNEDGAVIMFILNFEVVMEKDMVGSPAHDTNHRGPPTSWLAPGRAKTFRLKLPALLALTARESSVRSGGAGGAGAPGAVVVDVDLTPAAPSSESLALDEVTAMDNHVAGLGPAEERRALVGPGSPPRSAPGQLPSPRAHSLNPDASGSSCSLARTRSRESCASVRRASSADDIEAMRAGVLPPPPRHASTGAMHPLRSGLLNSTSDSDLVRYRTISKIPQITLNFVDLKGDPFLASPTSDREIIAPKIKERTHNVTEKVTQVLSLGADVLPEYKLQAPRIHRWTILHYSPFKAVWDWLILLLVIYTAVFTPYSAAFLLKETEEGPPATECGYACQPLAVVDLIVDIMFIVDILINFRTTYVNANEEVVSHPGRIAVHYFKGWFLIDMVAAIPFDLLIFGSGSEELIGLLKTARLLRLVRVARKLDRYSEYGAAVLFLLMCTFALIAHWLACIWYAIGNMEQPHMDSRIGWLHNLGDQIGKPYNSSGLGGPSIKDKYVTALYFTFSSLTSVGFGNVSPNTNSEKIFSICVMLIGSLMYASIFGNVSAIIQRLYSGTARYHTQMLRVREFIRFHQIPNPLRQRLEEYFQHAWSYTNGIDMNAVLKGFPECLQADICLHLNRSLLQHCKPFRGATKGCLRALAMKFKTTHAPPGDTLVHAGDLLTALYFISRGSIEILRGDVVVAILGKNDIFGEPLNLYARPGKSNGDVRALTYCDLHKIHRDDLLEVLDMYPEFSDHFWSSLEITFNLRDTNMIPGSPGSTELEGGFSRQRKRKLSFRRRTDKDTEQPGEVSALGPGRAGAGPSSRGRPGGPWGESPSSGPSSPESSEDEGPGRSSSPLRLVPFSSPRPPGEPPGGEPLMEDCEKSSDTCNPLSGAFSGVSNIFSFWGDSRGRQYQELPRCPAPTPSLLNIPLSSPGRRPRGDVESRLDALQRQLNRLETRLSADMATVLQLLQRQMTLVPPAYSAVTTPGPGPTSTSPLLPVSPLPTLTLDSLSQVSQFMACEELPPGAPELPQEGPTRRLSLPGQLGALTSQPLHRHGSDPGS

| SMILES | hERG current change (%, negative = inhibition) at 1uM |
| --- | --- |
| CC(C)CC(c1nnnn1Cc1ccccc1)N1CCC(C(N)=O)CC1 (stereo not drawn) | 16.5% |
| O=C(CCc1ccccc1)NC1CCSC1=O (stereo not drawn) | 4.84% |
| O=C1CCC(CCC(=O)N2CCCC(C(=O)c3ccc(Cl)cc3)C2)=NN1 (stereo not drawn) | 6.56% |
| O=[N+]([O-])c1ccccc1C1Nc2cccc3cccc(c23)N1 | 12.8% |
| CCOc1ccccc1N(C(=O)c1ccccc1Cl)C1=NC(C)(C)CS1 | -4.35% |
| O=C1CC(c2ccccc2)c2ccccc21 (stereo not drawn) | 9.2% |
| CCC(C)NC(=O)Cn1c(=O)n(-c2ccc(OC)cc2)c(=O)c2ccc(C(=O)NCc3ccc(C)cc3)cc21 (stereo not drawn) | 10.1% |
| CC(C)(C)c1cc(N2CCOCC2)n2ncc(-c3ccccc3)c2n1 | 19.2% |
| Cc1cc(C)nc(SCC(=O)Nc2ncc(Cc3cccc(Cl)c3)s2)n1 | 2.86% |
| Cc1ccc(-n2ncc3c(=O)n(CC#N)cnc32)cc1C | 8.35% |
| CCOC(=O)Nc1cc(C)ccc1OC | 14.8% |
| Nc1nc(OCC2CCCCC2)c2[nH]cnc2n1 | 3.32% |
| Cc1ccc(S(=O)(=O)n2c(CN3CCCC(C)C3)nc3ccccc32)cc1 (stereo not drawn) | -7.85% |
| CN1C(=O)c2ccccc2OC1(C)Cc1ccccc1 (stereo not drawn) | 17% |
| O=S(=O)(Nc1ccc(S(=O)(=O)N2CCCCCC2)cc1)c1cccs1 | 12.3% |
| CCc1cccc(N(C)C(N)=Nc2cccc3ccccc23)c1.Cl | 12.2% |
| CCN(Cc1ccccc1)C(c1ccc(C)cc1)c1nnnn1C(C)(C)CC (stereo not drawn) | 10.4% |
| C=CCOc1cccc(C2c3c(oc4ccc(F)cc4c3=O)C(=O)N2CCCN2CCOCC2)c1 (stereo not drawn) | -5.91% |
| CC(=O)Nc1ccc(S(=O)(=O)N2CCC(C(=O)NCCc3c[nH]c4ccccc34)CC2)cc1 | 7.8% |
| CCC(C)C(=O)Nc1nnc(-c2cccs2)s1 (stereo not drawn) | 11.2% |
| CC(=O)c1ccc(N2CCN(C(=O)c3nn(C)c4c3CS(=O)(=O)c3ccccc3-4)CC2)cc1 | -41.9% |
| COc1cccc(NC(=O)c2oc3ccccc3c2NC(=O)C(C)(C)C)c1 | 2.12% |
| CC1CCCCN1Cc1nc2c(c(=O)n(C)c(=O)n2C)n1CCCc1ccccc1 (stereo not drawn) | 4.06% |

| SMILES | hERG current change (%, negative = inhibition) at 1uM |
| --- | --- |
| CC(=O)NC1=NN(C(C)=O)C(C)(c2ccco2)S1 (stereo not drawn) | 5.66% |
| O=C(NC(=S)Nn1cnnc1)c1ccc(F)cc1Cl | 10.3% |
| Cc1cccc(NC(=O)CCS(=O)(=O)c2ccc3c(c2)oc(=O)n3C)c1 | 4.23% |
| Cc1ccccc1N(CC(=O)NCCSC1CCCCC1)S(=O)(=O)c1ccccc1 | 6.29% |
| Clc1ccc(-c2nc3ccncc3[nH]2)cc1 | 2.56% |
| C=CCNC(=O)C1CCN(S(=O)(=O)c2ccc3ccccc3c2)CC1 | 2.19% |
| COCCNC(=O)c1cc(C)ccc1C | 9.57% |
| CCN1CCCC1CN(Cc1cc2ccc(C)cc2[nH]c1=O)C(=S)Nc1ccccc1C(=O)OC (stereo not drawn) | -42.2% |
| CCCCCC#CCN1CCN(C23CC4CC(CC(C4)C2)C3)CC1 | -15.9% |
| O=C(NCCC(=O)N1CCC2(CC1)NCCc1[nH]cnc12)c1cccc(Cl)c1 | 13.2% |
| COCC(C)n1c(SCc2cc(C(=O)OC)c(C)o2)nc2ccccc2c1=O (stereo not drawn) | 4.87% |
| CC(=O)Nc1ccc(NC(=O)C(C)Sc2n[nH]c(-c3ccc(C)cc3)n2)cc1 (stereo not drawn) | 8.42% |
| CCc1ccc(NC(=O)N(CCN2CCOCC2)C2CCN(C(C)=O)CC2)cc1 | 11.9% |
| CCc1ccc(CN(C)C(=O)C2CCC(=O)N(CC3CCCCC3)C2)cc1 (stereo not drawn) | -12.3% |
| COc1ccc(C(=O)NCC(=O)N=Nc2c(O)n(C)c3ccccc23)cc1OC | 9.72% |
| CCC(C)(C(=O)NC1CCCCC1)N(C(=O)Cc1cccs1)c1ccccc1 (stereo not drawn) | -1.77% |
| COc1ccc(/C=C/C(=O)OCCCN(C)C)cc1.Cl | -0.155% |
| COc1cc(C(=O)OCC(=O)Nc2cc(C)on2)cc(OC)c1OC | -8.38% |
| CCCc1ccc(C(=O)Cn2nc(C(=O)O)c3ccccc3c2=O)cc1 | 11.1% |
| C#CCNC(=O)C1=C[C@H](c2ccccc2)C[C@H](OCCCCO)O1 | 16.8% |
| Cc1nn2c3ccccc3nc2c2ccccc12 | -0.436% |
| N#Cc1ccccc1OCC(=O)NC(=O)NCc1ccccc1 | 2.35% |
